Measured values taken from PubChem BioAssay AID504333 (National Center for Advancing Translational Sciences (NCATS), 2011).
In all, about 360,000 compounds went through this assay and about 16,000 (4.4%) were called active. This list was built around the results that the source calls inconclusive (neither active nor inactive); the mix of calls is not that of the screen. Calls come from the whole dose curve; as a rule, active = well fitted inhibition curve with a large enough effect; inconclusive = small, poorly fitted or top-dose-only effect; inactive = no such curve, though single readings can be large or run the other way. Potencies of inconclusive entries are doubtful fits and often do not repeat.

Molecular target: Bromodomain adjacent to zinc finger domain protein 2B (Homo sapiens) (UniProt Q9UIF8)
Test: qHTS Assay for Inhibitors of BAZ2B; note: nearly all actives have a fitted effect of over 60% in size
Details: AlphaScreen BAZ2B-H3K14Ac peptide displacement; activity change, negative = inhibition: at 114 µM (top of the series) unless noted
Summary of the method: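 AlphaScreen displacement: compounds (up to 110uM) incubated 30 min at room temperature with a preformed 50 nM BAZ2B/50 nM biotinylated H3K14Ac peptide complex in PBS pH 7.4 with Tween-20. Donor and acceptor beads at 10 ug/mL final added, 20 min light-protected before reading.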
% is set by controls: 0 for no effect and ±100 for the full control effect; potency is the fitted concentration of half-maximal effect; tags give direction and shape of the fitted curve.

UniProt Q9UIF8, sequence (Q9UIF8 whole entry, looked up, the tested form may be a part): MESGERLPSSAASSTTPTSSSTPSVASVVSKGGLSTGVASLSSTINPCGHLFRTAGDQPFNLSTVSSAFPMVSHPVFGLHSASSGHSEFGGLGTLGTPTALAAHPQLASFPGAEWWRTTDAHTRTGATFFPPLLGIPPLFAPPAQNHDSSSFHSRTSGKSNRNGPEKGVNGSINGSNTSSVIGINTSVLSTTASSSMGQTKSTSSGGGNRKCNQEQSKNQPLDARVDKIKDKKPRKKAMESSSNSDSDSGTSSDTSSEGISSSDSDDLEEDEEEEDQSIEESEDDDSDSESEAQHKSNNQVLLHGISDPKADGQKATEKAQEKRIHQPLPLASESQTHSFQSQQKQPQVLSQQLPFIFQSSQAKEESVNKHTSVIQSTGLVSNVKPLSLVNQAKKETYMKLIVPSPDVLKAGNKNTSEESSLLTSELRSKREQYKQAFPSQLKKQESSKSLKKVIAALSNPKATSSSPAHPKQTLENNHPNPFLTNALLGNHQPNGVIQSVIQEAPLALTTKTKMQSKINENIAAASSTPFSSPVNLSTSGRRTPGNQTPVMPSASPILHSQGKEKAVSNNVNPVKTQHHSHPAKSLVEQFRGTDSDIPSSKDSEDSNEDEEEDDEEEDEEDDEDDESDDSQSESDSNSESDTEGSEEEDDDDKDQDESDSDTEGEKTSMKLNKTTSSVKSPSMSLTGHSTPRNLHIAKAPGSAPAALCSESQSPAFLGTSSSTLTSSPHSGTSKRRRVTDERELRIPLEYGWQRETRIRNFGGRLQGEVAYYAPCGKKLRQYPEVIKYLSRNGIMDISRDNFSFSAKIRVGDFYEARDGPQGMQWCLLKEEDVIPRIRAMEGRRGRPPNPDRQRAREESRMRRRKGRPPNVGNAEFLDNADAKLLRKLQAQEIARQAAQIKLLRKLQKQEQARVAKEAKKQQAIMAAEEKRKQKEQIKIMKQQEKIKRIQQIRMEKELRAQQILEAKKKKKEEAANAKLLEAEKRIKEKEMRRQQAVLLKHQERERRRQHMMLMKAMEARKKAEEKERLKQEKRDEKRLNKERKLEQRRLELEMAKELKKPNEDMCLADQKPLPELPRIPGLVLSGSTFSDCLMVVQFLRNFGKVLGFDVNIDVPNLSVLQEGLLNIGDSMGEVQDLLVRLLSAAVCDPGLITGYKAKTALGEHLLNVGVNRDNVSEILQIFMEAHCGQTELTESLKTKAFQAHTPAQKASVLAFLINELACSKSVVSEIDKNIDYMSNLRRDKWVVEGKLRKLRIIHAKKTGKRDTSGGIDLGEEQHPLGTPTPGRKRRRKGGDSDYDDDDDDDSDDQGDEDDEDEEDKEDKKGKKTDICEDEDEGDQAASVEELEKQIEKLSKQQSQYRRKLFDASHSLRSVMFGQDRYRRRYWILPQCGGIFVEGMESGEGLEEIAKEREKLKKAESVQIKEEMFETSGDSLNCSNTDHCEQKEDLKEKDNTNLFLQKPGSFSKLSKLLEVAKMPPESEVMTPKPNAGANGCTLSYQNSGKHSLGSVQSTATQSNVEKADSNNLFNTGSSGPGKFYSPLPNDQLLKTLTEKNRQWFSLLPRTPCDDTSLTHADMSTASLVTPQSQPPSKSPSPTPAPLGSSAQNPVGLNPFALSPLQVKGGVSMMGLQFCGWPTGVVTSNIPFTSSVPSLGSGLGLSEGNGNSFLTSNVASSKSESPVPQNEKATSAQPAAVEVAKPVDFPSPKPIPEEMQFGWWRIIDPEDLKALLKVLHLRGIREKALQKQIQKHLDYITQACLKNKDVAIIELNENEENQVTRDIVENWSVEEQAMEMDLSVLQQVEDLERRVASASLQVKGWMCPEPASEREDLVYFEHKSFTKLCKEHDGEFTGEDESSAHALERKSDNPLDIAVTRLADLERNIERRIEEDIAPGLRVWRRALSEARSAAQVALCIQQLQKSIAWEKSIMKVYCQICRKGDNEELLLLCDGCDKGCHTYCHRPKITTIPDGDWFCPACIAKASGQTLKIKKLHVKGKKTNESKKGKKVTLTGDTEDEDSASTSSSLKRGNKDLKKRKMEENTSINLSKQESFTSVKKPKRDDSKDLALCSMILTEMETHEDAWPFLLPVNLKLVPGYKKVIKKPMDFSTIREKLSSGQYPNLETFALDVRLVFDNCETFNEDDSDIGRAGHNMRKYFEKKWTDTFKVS

| Compound | Potency | activity change, negative = inhibition |
| --- | --- | --- |
| CC(C)Sc1ccccc1C(=O)Nc1ccc2c(c1)n(C)c(=O)n2C | active: 56.2 µM | – |
| O=C(COC(=O)c1cncc(Br)c1)NCc1ccco1 | active: 31.6 µM | – |
| N[C@@H](CO)c1cn([C@@H](Cc2cc3ccccc3[nH]2)C(=O)N2CCNCC2)nn1 | active: 50.1 µM | – |
| COc1ccc(-c2nnc(NC(=O)C3=COCCO3)o2)cc1 | active: 28.2 µM | – |
| CCn1c(SCC(=O)Nc2ccccc2C(=O)OC)nnc1-c1ccc(N)cc1 | – | inactive: 3.45% |
| C#CCOCCOCCOCCNc1nc(N2CCN(C(=O)[C@H]([C@@H](C)O)n3cc(CCCCN)nn3)CC2)nc(N2CCN(C(=O)[C@H](CCCCN)n3cc(CCC(=O)O)nn3)CC2)n1 | inconclusive: 89.1 µM [inhibitor, single point] | – |
| CCOC(=O)C1CCN(CC(O)COCc2ccc3c(c2)OCO3)CC1 (stereo not drawn) | – | inactive: 3.21% |
| Cc1[nH]c2ccccc2c1-c1csc(NC(=O)CSCCO)n1 | inconclusive: 56.2 µM [inhibitor, partial curve] | – |
| O=C(CSc1oc(-c2ccccc2)nc1S(=O)(=O)c1ccccc1)NCC1CCCO1 (stereo not drawn) | – | inactive: -15.9% |
| CCOC(=O)c1cnc(Nc2nc3ccccc3o2)nc1CN1CCN(C)CC1 | active: 79.4 µM | – |
| CC(OC(=O)c1ccco1)C(=O)Nc1ncc(Cl)cc1Cl (stereo not drawn) | – | inactive: 2.77% |
| O=C(COC(=O)CCc1c[nH]c2ccccc12)NC(c1ccccc1)c1ccccc1 | inconclusive: 39.8 µM [inhibitor, partial curve] | – |
| S=C(NC12CC3CC(CC(C3)C1)C2)N1CCCC1 | – | inactive: 6.92% |
| CC(C)(C)OC(=O)[C@H](Cc1ccccc1)NC(=O)c1nc[nH]c1C(=O)NCCCCCN | inconclusive: 79.4 µM [inhibitor, single point] | – |
| CCOC(=O)c1c(-c2ccc(C)o2)csc1NC(=O)CN1CCCCC1 | inconclusive: 79.4 µM [inhibitor, partial curve] | – |
| CCc1nc(NCCCn2ccnc2)c2oc3ccccc3c2n1 | inconclusive: 89.1 µM [inhibitor, single point] | – |
| CC(C)(C)C1CCc2c(sc(NC(=O)Cn3nnc(-c4ccccc4Cl)n3)c2C#N)C1 (stereo not drawn) | – | inactive: -25.5% |
| Cc1c(C(=O)N2CCOCC2)oc2c1-c1nn(CC(=O)NCc3cccc(F)c3)cc1CC2 | inconclusive: 89.1 µM [inhibitor, single point] | – |
| COc1cccc(C2CC(C(F)(F)F)n3ncc(C(=O)NCc4ccco4)c3N2)c1 (stereo not drawn) | inconclusive: 89.1 µM [inhibitor, single point] | – |
| CCSC1(SCC)N=C(N)C2(C#N)C(c3ccccc3)NC(C)=CC12C#N (stereo not drawn) | inconclusive: 89.1 µM [inhibitor, single point] | – |
| COc1ccc(C(=O)COC(=O)c2cc([N+](=O)[O-])ccc2N2CCOCC2)c(OC)c1 | inconclusive: 44.7 µM [inhibitor, partial curve] | – |
| CC(C)(C)NC(=O)COc1ccc2oc3c(c2c1)CCCC3 | – | inactive: -4.35% |
| CCOc1ccccc1CNC(=O)CCc1c(C)nn(-c2ccc(N3CCCC3)nn2)c1C | inconclusive: 89.1 µM [inhibitor, single point] | – |

| Compound | Potency | activity change, negative = inhibition |
| --- | --- | --- |
| COc1cc(OC)cc(C(=O)Nc2nc(-c3ccccc3)c(-c3ccccc3)o2)c1 | inconclusive: 22.4 µM [inhibitor, full curve, poor fit] | – |
| CC(=O)Nc1cccc(NC(=O)CSc2ccc(-c3ccco3)nn2)c1 | inconclusive: 50.1 µM [inhibitor, partial curve] | – |
| Cc1cccc(NC(=O)c2nc[nH]c2C(=O)N2CCN(C(=O)OC(C)(C)C)CC2)c1 | inconclusive: 89.1 µM [inhibitor, single point] | – |
| COc1ccccc1C(=O)Nc1ccc2nc(SCCOc3ccccc3C)sc2c1 | – | inactive: 9.59% |
| COc1ccc(CNC(=O)C2CCN(S(=O)(=O)c3cccc4nsnc34)CC2)cc1 | – | inactive: 0.785% |
| O=C(NNC(=O)c1ccc(NC(=O)c2ccccc2)cc1)c1ccc(F)cc1 | – | inactive: -22.9% |
| c1ccc(CCCN2CCOCC2)cc1 | inconclusive: 89.1 µM [inhibitor, single point] | – |
| C=CCn1cccc(/C=C/C(=O)c2ccc(C(C)(C)C)cc2)c1=S | active: 11.2 µM | – |
| CN(C)/C=C(\C#N)C(=O)c1cccc(Oc2ccc(Br)cc2)c1 | inconclusive: 89.1 µM [inhibitor, single point] | – |
| C=CCn1c(COc2ccc(CC)cc2)nnc1SCC(=O)NC1CCS(=O)(=O)C1 (stereo not drawn) | – | inactive: 1.97% |
| CCCCOc1ccc(C(=O)N/C(=C/C=C/c2ccccc2)C(=O)O)cc1 | inconclusive: 79.4 µM [inhibitor, single point] | – |
| CN(C)c1cccc(C(=O)N2CCC(c3c[nH]c4ccccc34)(c3c[nH]c4ccccc34)CC2)c1 | inconclusive: 8.91 µM [inhibitor, full curve, poor fit] | – |
| O=C(O)C1=NN(c2ccccc2)C(=O)C1 | inconclusive: 50.1 µM [inhibitor, partial curve] | – |
| Cc1ccc(S(=O)(=O)N2CCN(c3ncnc4sccc34)CC2)cc1 | – | inactive: -3.48% |
| O=C(CSc1cn(CCNC(=O)c2ccccc2)c2ccccc12)NCc1ccco1 | inconclusive: 56.2 µM [inhibitor, partial curve] | – |
| C/C(Cl)=C\Cn1c(O)c(N=NC(N)=S)c2ccccc21 | inconclusive: 11.2 µM [inhibitor, full curve, poor fit] | – |
| COc1ccc2ccccc2c1CN1CCN(C(=O)c2ccco2)CC1 | inconclusive: 70.8 µM [inhibitor, single point] | – |
| Cc1ccccc1N1CCN(c2ncnc3scc(-c4cccs4)c23)CC1 | inconclusive: 79.4 µM [inhibitor, single point] | – |
| C#CCOCCOCCOCCNc1nc(N2CCN(C(=O)C([C@@H](C)CC)n3cc(C(N)CC(C)C)nn3)CC2)nc(N2CCN(C(=O)[C@H](CCC(=O)O)n3cc(C(N)CC(C)C)nn3)CC2)n1 (stereo partly drawn) | active: 79.4 µM | – |
| O=C1c2oc3ccccc3c(=O)c2C(c2cccc(O)c2)N1c1nncs1 (stereo not drawn) | inconclusive: 89.1 µM [inhibitor, single point] | – |
| CCOC(=O)c1c(-c2ccc(C)cc2)csc1NC(=O)c1cc(=O)c2cc(C)ccc2o1 | inconclusive: 79.4 µM [inhibitor, single point] | – |
| Cc1cc(C)c(C#N)c(SCC(O)COc2ccc(Br)cc2)n1 (stereo not drawn) | – | inactive: 2.39% |
| CC(C)n1c(O)c(N=NC(=O)c2ccccc2NS(=O)(=O)c2cccs2)c2ccccc21 | inconclusive: 79.4 µM [inhibitor, single point] | – |

| Compound | Potency | activity change, negative = inhibition |
| --- | --- | --- |
| Cc1ccc(-c2cc(C(=O)NCCCN3CCCC3)c3ccccc3n2)cc1C | inconclusive: 79.4 µM [inhibitor, single point] | – |
| CSc1ccc(/C=C/C(=O)NC(=O)c2ccccc2O)cc1 | inconclusive: 79.4 µM [inhibitor, partial curve] | – |
| C=CCOc1ccc(/C=N\NC(N)=S)cc1 | inconclusive: 70.8 µM [inhibitor, single point] | – |
| Cc1onc(-c2c(F)cccc2Cl)c1C(=O)Nc1ccccc1N1CCOCC1 | inconclusive: 100 µM [inhibitor, partial curve] | – |
| CCCCCCCCNC(=O)c1ccc(C)cc1 | – | inactive: 10.4% |
| O=C(O)c1ccc2c(c1)C(=O)N([C@H](Cc1ccc3ccccc3c1)C(=O)O)C2=O | inconclusive: 89.1 µM [inhibitor, single point] | – |
| CC(=O)N1N=C(c2cccc([N+](=O)[O-])c2)OC1c1ccccc1Cl (stereo not drawn) | inconclusive: 50.1 µM [inhibitor, partial curve] | – |
| CCOC(=O)c1sc(NC(=O)CN2C(=O)NC3(CC(C)CC(C)(C)C3)C2=O)cc1C (stereo not drawn) | inconclusive: 89.1 µM [inhibitor, single point] | – |
| Cc1cc(C)cc(N(C(=O)c2csnn2)C(C(=O)NC(C)(C)C)c2ccncc2)c1 (stereo not drawn) | inconclusive: 89.1 µM [inhibitor, single point] | – |
| CN1CCN(c2ccc(Nc3ccnc4cc(Cl)ccc34)cc2)CC1 | inconclusive: 70.8 µM [inhibitor, single point] | – |
| Cc1cccc(CS(=O)(=O)c2ncc(Cl)c(C(=O)Nc3nnc(C(C)C)s3)n2)c1 | inconclusive: 89.1 µM [inhibitor, single point] | – |
| C/C(=N/NC(=O)c1cc(C)[nH]n1)c1ccncc1 | inconclusive: 79.4 µM [inhibitor, single point] | – |
| O=C(CCn1c(=O)c2cccn2c2cccnc21)N1CCN(c2cccc(C(F)(F)F)c2)CC1 | – | inactive: -34.5% |
| COc1ccc(NS(=O)(=O)c2ccc3nc(COc4cccc5ccccc45)[nH]c3c2)cc1 | inconclusive: 89.1 µM [inhibitor, single point] | – |
| CNC(=S)N/N=C/c1cc(Br)cc(Br)c1O | active: 3.16 µM | – |
| COc1ccc(NC2CCN(C3CC(=O)N(c4ccc(F)c(Cl)c4)C3=O)CC2)cc1 (stereo not drawn) | active: 44.7 µM | – |
| N#CC1=C(N)Oc2n[nH]c(-c3cccnc3)c2C1c1cc(F)ccc1F (stereo not drawn) | inconclusive: 1 µM [inhibitor, full curve, poor fit] | – |
| CC(=O)c1[nH]c(C)c(C(C)=O)c1C | inconclusive: 89.1 µM [inhibitor, single point] | – |
| CCC(C)N(C(=O)CSc1nnc(-c2ccco2)n1C)C1CCS(=O)(=O)C1 (stereo not drawn) | – | inactive: 11.4% |
| C(=N\NC1=Nc2cccc3cccc1c23)/c1ccccn1 | inconclusive: 3.98 µM [inhibitor, full curve] | – |
| C[C@H](NC(=O)c1ccccc1)C(=O)N1CCN(c2ccccc2)CC1 | – | inactive: -2.09% |
| O=C(Nc1c(C(=O)N2CCN(c3ccccc3F)CC2)oc2ccccc12)c1cccc(F)c1 | inconclusive: 5.62 µM [inhibitor, single point] | – |
